# Source: article PMC4336329 (PLoS ONE, 2015)
# In all, about 310,000 compounds went through this assay and about 2,200 (0.71%) showed an effect of 50% or more. Effects have a minus sign here. The list shows a part of the results.
# Target: human ether-à-go-go-related gene (hERG) potassium channel (human, UniProt Q12809)
# Experiment: primary screen, population patch clamp on CHO cells stably expressing hERG
# Sequence of human ether-à-go-go-related gene (hERG) potassium channel (Q12809 whole entry, looked up): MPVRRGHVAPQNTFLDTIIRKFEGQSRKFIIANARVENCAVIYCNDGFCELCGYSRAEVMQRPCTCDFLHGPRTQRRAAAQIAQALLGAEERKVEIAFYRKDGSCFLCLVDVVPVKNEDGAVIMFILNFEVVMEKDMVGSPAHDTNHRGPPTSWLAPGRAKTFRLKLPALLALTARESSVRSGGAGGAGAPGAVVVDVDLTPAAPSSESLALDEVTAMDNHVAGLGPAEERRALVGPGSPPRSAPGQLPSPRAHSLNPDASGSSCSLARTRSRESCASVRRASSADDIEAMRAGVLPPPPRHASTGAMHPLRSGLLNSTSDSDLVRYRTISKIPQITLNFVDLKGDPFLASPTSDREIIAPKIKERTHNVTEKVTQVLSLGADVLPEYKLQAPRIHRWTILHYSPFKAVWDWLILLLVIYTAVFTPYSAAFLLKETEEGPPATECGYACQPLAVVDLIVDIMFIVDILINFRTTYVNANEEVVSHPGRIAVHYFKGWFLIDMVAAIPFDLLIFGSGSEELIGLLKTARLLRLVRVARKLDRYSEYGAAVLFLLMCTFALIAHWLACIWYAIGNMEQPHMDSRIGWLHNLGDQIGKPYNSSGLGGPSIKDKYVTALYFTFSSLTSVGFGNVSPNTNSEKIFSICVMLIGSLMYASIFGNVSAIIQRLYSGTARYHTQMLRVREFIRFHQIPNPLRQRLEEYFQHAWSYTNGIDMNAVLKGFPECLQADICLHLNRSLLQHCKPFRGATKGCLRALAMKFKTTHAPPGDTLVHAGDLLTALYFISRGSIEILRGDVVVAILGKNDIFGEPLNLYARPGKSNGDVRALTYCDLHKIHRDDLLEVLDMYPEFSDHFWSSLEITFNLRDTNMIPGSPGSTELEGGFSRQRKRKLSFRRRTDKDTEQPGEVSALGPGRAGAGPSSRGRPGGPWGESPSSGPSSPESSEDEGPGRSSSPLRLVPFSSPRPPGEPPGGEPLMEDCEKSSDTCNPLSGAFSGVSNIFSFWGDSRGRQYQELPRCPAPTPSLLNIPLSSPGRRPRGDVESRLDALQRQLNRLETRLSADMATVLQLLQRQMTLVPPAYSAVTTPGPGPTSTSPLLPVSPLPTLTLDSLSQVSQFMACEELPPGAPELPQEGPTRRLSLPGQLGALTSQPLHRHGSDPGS
row,Compound,"hERG current change (%, negative = inhibition) at 1uM"
1,O=C(Cn1cc(C(=O)C2CC2)c2ccccc21)Nc1ccc(F)cc1,-6.98%
2,O=C(Cn1cnc2ccccc2c1=O)Nc1ccc(S(=O)(=O)N2CCOCC2)cc1,16.8%
3,CCOC(=O)c1cc(-c2ccc(N3CCOCC3)cc2)nn1-c1ccccc1,-0.567%
4,CS(=O)(=O)N(CC(=O)NN=C1CCCCCC1)c1ccc(Oc2ccccc2)cc1,17.8%
5,CC(=O)Nc1cc(NC(C)=O)cc(C(=O)OCC(=O)c2ccc3c(c2)OCO3)c1,10.9%
6,Nc1cc(N)nc(SCC(=O)NCc2ccco2)n1,4.79%
7,Cc1nn(Cc2ccc(F)cc2)c(C)c1NC(=O)CCCn1nc([N+](=O)[O-])cc1C,10.7%
8,N#Cc1ccc(OCC(O)CN2CCN(CC(O)COc3ccc(C#N)cc3)CC2)cc1 (stereo not shown),-91.3%
9,CCCS(=O)(=O)N1CCN=C1SCc1cccc2ccccc12,3.2%
10,CCOC(=O)N1CCC(NS(=O)(=O)c2ccc(NC(C)=O)c(Cl)c2)CC1,15.5%
11,O=C(Nc1ccc(-n2cccc2)cc1)C1CC1,13.8%
12,O=C(c1ccc(S(=O)(=O)N2CCOCC2)cc1)N1CCCc2ccccc21,12%
13,O=C(CNC(=O)c1cccs1)OCC(=O)c1ccc(Br)cc1,9.68%
14,O=C(CC1SC(N2CCCCC2)=NC1=O)Nc1cccc(C(=O)O)c1 (stereo not shown),3.53%
15,CCCCOc1ccc(C(=O)N/C(=C\c2cccc([N+](=O)[O-])c2)C(=O)OC(C)C)cc1,14.3%
16,COc1ccc(-n2cnc3c(sc4nccc(N(C)C)c43)c2=O)cc1,5.3%
17,Cc1cc(C)c(S(=O)(=O)NCC(CCC(=O)O)C(F)(F)F)c(C)c1 (stereo not shown),8.25%
18,C(=N\c1nccs1)/c1cccnc1,0.901%
19,CC1(C)NC(=O)N(CC(O)CN2C(=O)NC(C)(C)C2=O)C1=O,17.6%
20,N#Cc1c(Cl)nsc1NCCN1CCOCC1,13.8%
21,Cc1ccc(-n2nc3c(c2NC(=O)c2ccco2)CS(=O)C3)cc1 (stereo not shown),11%
22,O=C(NC1CCN(Cc2ccccc2)CC1)c1ccc2c(c1)OCCCO2,2.08%
23,Cc1cc(C)c(NC(=O)CNC(=O)COC(=O)/C=C/c2cccs2)c(C)c1,4.77%

row,Compound,"hERG current change (%, negative = inhibition) at 1uM"
1,CN(Cc1ccccc1)S(=O)(=O)c1csc(C(N)=O)c1,4.39%
2,O=C(NNC(=O)c1ccncc1)c1ccccc1,13.4%
3,COc1cccc(N2CC(NS(=O)(=O)c3cccs3)CC2=O)c1 (stereo not shown),14.7%
4,COC(=O)COc1ccc(Oc2nc(SC)nc(N(C)C)n2)nn1,6.18%
5,CCS(=O)(=O)Nc1ccc(-c2nnc(SCC(=O)OC)o2)cc1,13.5%
6,COc1ccc(-c2noc(CSc3nnc(-c4ccncc4)n3-c3ccc(F)cc3)n2)cc1OC,2.83%
7,O=c1[nH]c2ccc(NS(=O)(=O)c3ccc([N+](=O)[O-])cc3)cc2[nH]1,6.41%
8,CC(Cc1cccs1)NC(=O)Nc1cccc(Cl)c1 (stereo not shown),9.05%
9,Cc1ccc2cccc(OCc3cccc([N+](=O)[O-])c3)c2n1,7.24%
10,CCCn1c(CN2CCCCC2C)nc2c1c(=O)n(C)c(=O)n2C (stereo not shown),9.55%
11,Cc1ccccc1-c1nnc(Cc2ccccc2)o1,2.27%
12,CC(NC(=O)C1CC12CCC2)c1ccccc1 (stereo not shown),7.09%
13,COCCN(C(=O)C1CC1)c1nnc(-c2cccc(C)c2)s1,6.57%
14,O=C(NCCNc1ccc([N+](=O)[O-])cc1)c1ccccc1Br,-22.8%
15,CC(O)[C@H]1CNCCN1CC1(c2ccccc2)CC1 (stereo partly shown),0.796%
16,O=S(=O)(NCC(c1cccnc1)N1CCOCC1)c1ccc(Cl)cc1 (stereo not shown),14.8%
17,C=CCN(CC=C)C(=O)c1ccccc1NC(=O)c1ccccc1C,4.72%
18,CCc1ccc(CNC(=O)CC2C(=O)NCCN2Cc2ccccc2F)nc1 (stereo not shown),14%
19,O=S1(=O)CCO[C@H]2Cc3ccccc3[C@H]2N1Cc1ccccc1Br,0.613%
20,O=C(CN1C(=O)NC(Cc2ccccc2)C1=O)Nc1ccc(OC(F)(F)F)cc1 (stereo not shown),4.21%
21,Cc1cc(C)nc(OC(=O)c2c(Cl)cc(Cl)cc2Cl)n1,18.3%
22,C=CCn1c(SCC(=O)NC(=O)c2cccc([N+](=O)[O-])c2)nnc1-c1ccccc1,8.34%
23,CN(C)CCn1c(C(=O)Nc2ccccc2)cc2ccccc21.Cl,-33.1%

row,Compound,"hERG current change (%, negative = inhibition) at 1uM"
1,CCC(C(=O)Nc1ccc(OC)c(Cl)c1)c1ccccc1 (stereo not shown),9.18%
2,Cc1ccc(-c2nn(-c3ccccc3)c3[nH]c(=O)c(CNCc4ccccc4)cc23)cc1,16.9%
3,O=C(Nc1cccc(Br)c1)c1ccc2c(c1)SC1=NS(=O)(=O)CCN12,7.1%
4,COC(=O)[C@H](Cc1ccccc1)NC(=O)NCc1ccccc1OC,11.3%
5,NC(N)=NC(=O)c1nc(Cl)c(N)nc1N,5.12%
6,Cc1ccc2c(c1)C(=O)CC1(CCC(C(C)(C)C)CC1)O2 (stereo not shown),17.1%
7,Cc1ccc(CN2CCN(C3CSCCSC3)CC2CCO)cc1 (stereo not shown),-15.2%
8,Cc1cc(=O)c2c([nH]1)c(C)cc1[nH]c(C)c(C)c12,10.6%
9,Cc1cc(C=O)c(C)n1C1CC1,5.75%
10,O=c1cc(N2CCN(c3ccccc3F)CC2)[nH]c(=O)n1-c1ccc(Br)cc1,-32.1%
11,COC(=O)C1=C(C)N(CCCC(=O)O)C(=O)NC1c1ccccc1OS(=O)(=O)c1ccccc1[N+](=O)[O-] (stereo not shown),15.6%
12,Cc1nc(N2CCN(C)CC2)c2c(C)c(C(=O)Nc3ccc(F)cc3)sc2n1,-18.9%
13,COC(=O)c1oc2c(c1C)C(=O)CC(C)(C)C2,13.1%
14,COc1cc2c(cc1OC)C(c1ccco1)CC(=O)N2 (stereo not shown),4.72%
15,Cc1cccc2nc(CSCc3ccco3)cn12,0.819%
16,O=C(NCc1ccccc1Cl)C1CCN(S(=O)(=O)c2ccc(F)cc2)CC1,-9.56%
17,CN=C1c2c(-c3ccccc3)c3cc(OC)ccc3n2CCN1C.Cl,-31.6%
18,COc1cccc(NC(=O)Nc2ccccc2SC)c1,-0.158%
19,COc1cc(OC)c(CN2CCC(Cc3ccccc3)CC2)cc1Br,-32.2%
20,Cc1csc(-c2cnn(-c3ccccc3)c2NC(=O)c2cccc(F)c2)n1,-5.07%
21,COc1ccc(C(=O)Nc2ccc(N3CCN(C(=O)c4cccs4)CC3)cc2)cc1Br,4.71%
22,Cc1ccccc1NC(=S)NCc1ccccc1,3.9%
23,O=C(CCCOc1ccccc1)N1CCN(S(=O)(=O)c2ccc(Cl)cc2)CC1,9.06%

row,Compound,"hERG current change (%, negative = inhibition) at 1uM"
1,CN1CCN(CCCNC(=O)c2ccc3c(c2)N(Cc2ccccc2)CCS3)CC1,-2.68%
2,COc1ccc(N2CC(C(=O)N/N=C/c3ccccc3)CC2=O)cc1 (stereo not shown),3.88%
3,O=C(CN(C(=O)Cn1nnc(-c2ccccc2F)n1)c1cccc2c1CCCC2)NCc1ccccc1,13.2%
4,COc1cc(C)c(Br)cc1S(=O)(=O)NCc1ccccc1,11.9%
5,CCc1c(O)nc(SCC(=O)Nc2ccccc2OC)n(-c2ccccc2C)c1=O,9.74%
6,Cc1ccc(NC(=O)CCn2c(=O)oc3ccccc32)cc1,6.25%
7,CCOc1cc(/C=C2\C(=O)N(c3cccc(C(F)(F)F)c3)C(=O)c3ccccc32)ccc1O,-7.19%
8,CC(C)CN(C(=O)c1cc(=O)[nH]c2ccccc12)c1c(N)n(Cc2ccccc2)c(=O)[nH]c1=O,7.97%
9,CCO/C([O-])=N/c1c[n+](N2CCOCC2)no1,15.4%
10,O/N=C/c1ccc(-c2ccccc2OC(F)(F)F)o1,13.6%
11,CN(Cc1cccc(F)c1)C(=O)c1cccc(S(=O)(=O)N2CCN(Cc3ccccc3)CC2)c1,6.94%
12,Nc1ccc2oc(-c3ccccn3)nc2c1,16.6%
13,CCOC(=O)c1ccc(NC(=O)N2CCN(CCc3ccccc3)CC2)cc1,-23.8%
14,CC(NC(=O)CN1CCCC1)C12CC3CC(CC(C3)C1)C2.Cl (stereo not shown),-16%
15,Cn1nc(C(F)(F)F)cc1-c1ccc(/C=C(\C#N)C(=O)c2cccc(C(F)(F)F)c2)s1,11.9%
16,CCCCn1c(NCc2cccs2)nc2ccccc21,-10.1%
17,COc1ccc(CNC(=S)Nc2ccc(OC)cc2)cc1,6.92%
18,O=C(NNC(=O)c1ccc(-c2ccccc2)cc1)c1ccccc1,8.77%
19,CCc1ccc(/C=C2/C(=O)N(C)C(=S)N2CC(=O)OC)s1,11.6%
20,Cc1ccc(S(=O)(=O)NCc2ccc3c(c2)cc(C)n3C)cc1,21.8%
21,CCOC(=O)CCc1nn(C)c(=O)c2ccccc12,1.87%
22,CCOC(=O)C1CCN(CC(O)COc2ccc(C(C)=O)cc2)CC1.Cl (stereo not shown),-30.4%
